# Test results as given in article PMC6919601, “Identification of Plasmodium dipeptidyl aminopeptidase allosteric inhibitors by high throughput screening” (PLoS ONE, 2019).
# The whole screen tested about 110,000 compounds, of which about 230 (0.21%) showed an effect of 50% or more. The list shows a part of the results.
# Target: DPAP1 (Plasmodium falciparum, UniProt Q8IIJ9)
# Assay: primary screen, percent inhibition; read by cleavage of a fluorogenic dipeptide substrate; higher = more effect of the substance
# Design: species or system P. falciparum D10 trophozoite lysates; single well
# 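Note: 30 min substrate incubation versus DMSO and 10 µM JCP410 controls.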
# Chain of DPAP1 (Q8IIJ9 whole entry, looked up): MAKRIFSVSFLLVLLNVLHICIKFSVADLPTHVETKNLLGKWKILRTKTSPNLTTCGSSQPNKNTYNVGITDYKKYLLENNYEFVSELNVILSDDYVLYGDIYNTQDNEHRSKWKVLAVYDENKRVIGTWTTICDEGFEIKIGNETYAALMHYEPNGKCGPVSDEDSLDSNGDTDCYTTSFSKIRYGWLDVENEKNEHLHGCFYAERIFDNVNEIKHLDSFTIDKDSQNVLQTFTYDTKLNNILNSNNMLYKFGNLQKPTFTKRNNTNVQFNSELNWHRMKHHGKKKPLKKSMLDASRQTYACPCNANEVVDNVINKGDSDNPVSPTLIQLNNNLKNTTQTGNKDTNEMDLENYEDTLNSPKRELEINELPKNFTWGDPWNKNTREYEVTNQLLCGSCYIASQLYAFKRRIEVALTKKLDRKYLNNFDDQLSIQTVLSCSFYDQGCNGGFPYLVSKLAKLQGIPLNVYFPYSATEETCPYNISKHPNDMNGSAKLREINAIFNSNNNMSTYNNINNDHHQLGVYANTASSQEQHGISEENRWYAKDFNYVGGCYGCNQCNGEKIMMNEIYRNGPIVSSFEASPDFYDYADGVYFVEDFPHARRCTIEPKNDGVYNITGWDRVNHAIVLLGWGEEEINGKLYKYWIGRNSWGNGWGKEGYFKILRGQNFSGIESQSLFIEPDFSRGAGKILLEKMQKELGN
row,SMILES,% Inhibition @ 10 uM [%]
1,O=C(COc1ccccc1Br)Nc1cccc(C(F)(F)F)c1,-3.23
2,CCc1oc(C(=O)O)cc1CN1CCCCC1,0.0539
3,COc1ccc(OC)c(S(=O)(=O)NCc2ccccc2)c1,5.31
4,Cc1ccc(Cc2nnc(C(=O)NCCCN3CCC(Cc4ccccc4)CC3)o2)cc1,-2.23
5,Cc1c(CN2CC(C)CC(C)C2)c(=O)n(-c2ccccc2)n1C (stereo not shown),-3.27
6,COC(=O)c1ccc(/C=N\n2c(C)nnc2C)cc1,-3.98
7,Cc1ccc(C(=O)N/C(=C/c2cccnc2)C(=O)Nc2cccc(Br)c2)cc1,-4.03
8,Cc1ccc(-n2nc3c(=O)n(C(C)C(=O)NCc4ccc5c(c4)OCO5)nc(C)c3c2C)cc1 (stereo not shown),9.94
9,Cc1cc2c(o1)-c1c(oc3ccccc13)CCC2(C)c1ccccc1 (stereo not shown),1.62
10,CCOC(=O)C1=C(c2ccccc2)O/C(=C(/C(=O)OC)C(F)(F)F)S1,-1.6
11,CCOC(=O)C1=CN(C)C=C(C(=O)OCC)C1c1ccc(O)c(OC)c1,3.45
12,CN1CCN(c2cc([N+](=O)[O-])ccc2Cl)CC1,-5.62
13,CCOc1cc(-c2ccc(O)cc2)cc(=O)c2c(C)oc(C)c12,-8.52
14,Oc1c2c(nc3nc(-c4ccco4)nn13)CCC2,-6.04
15,CCCNCP(=O)(O)CNCCC,-2.63
16,O=C(CN(CCc1ccccc1)S(=O)(=O)c1ccc(Cl)cc1)NCc1ccccn1,-4.51
17,COc1ccc(-c2cc(C)no2)cc1S(=O)(=O)NCCc1ccc(SC)cc1,-0.873
18,C=CCNC(=O)C(=O)NCc1ccccc1,-2.18
19,CC1(C)CC(=O)C2=C(C1)NC(=O)CC2c1ccc2ccccc2c1 (stereo not shown),8.91
20,CCOC(=O)c1c(NC(=O)COc2ccc(Cl)cc2C)sc(C(=O)NC2CCCC2)c1C,2.25
21,CCOC(=O)c1c(NC(=O)COc2ccc(Cl)cc2C)sc(C(=O)N2CCCCC2)c1C,-1.46
22,Cc1ccc(C(=O)Nc2nc(-c3ccc(Cl)cc3)cs2)o1,-8.05
23,CC/N=C1/SC(CC(=O)Nc2cccc(C(F)(F)F)c2)C(=O)N1CC (stereo not shown),-1.57
24,COc1cc(Br)cc(/C=C2/NC(=O)N(c3cccc(Cl)c3)C2=O)c1O,0.764
25,CC(=O)N(CCCN(C)C)c1nc2cc(C)cc(C)c2s1,0.49

row,SMILES,% Inhibition @ 10 uM [%]
1,NC(=O)Cn1c(=O)n(Cc2ccc(F)cc2)c(=O)c2cccnc21,1.72
2,CC(C)C[C@@H](/C=C/S(C)(=O)=O)NC(=O)[C@H](Cc1ccc(O)cc1)NC(=O)[C@H](CC(C)C)NC(=O)[C@H](CC(C)C)NC(=O)OC(C)(C)C,-1.41
3,c1ccc(CCN2CCC(N(CCc3ccccc3)Cc3ccccc3)CC2)cc1,-1.81
4,COc1cc(C2CC(=O)c3c([nH]c(C(=O)OCc4ccccc4)c3C)C2)cc(OC)c1OC (stereo not shown),-1.92
5,CCOC(=O)N1CCN(C(=O)CSc2ccc(-c3cccs3)nn2)CC1,15
6,O=C(Nc1nc(-c2ccc(S(=O)(=O)N3CCCC3)cc2)cs1)C1COc2ccccc2O1 (stereo not shown),2.64
7,Cn1nc(C(=O)NCc2cccnc2)c2c1-c1ccccc1S(=O)(=O)C2,0.0845
8,Cc1ccsc1CN1CC(C)OC(C)C1 (stereo not shown),6.53
9,C=C1C(C(=O)N2CCN(Cc3ccccc3)CC2)C1C(=O)N1CCN(Cc2ccccc2)CC1 (stereo not shown),-7.43
10,Cc1cc(C)c(S(=O)(=O)N2CCC(C(=O)Nc3ccc(F)cc3F)CC2)c(C)c1,7.67
11,N#CC1=C(N)N(c2nc[nH]n2)C2=C(C(=O)CCC2)C1c1ccc(F)cc1 (stereo not shown),-1.98
12,Clc1ccc(C2Oc3ccccc3C3=C2C(c2cccs2)n2ncnc2N3)cc1 (stereo not shown),0.0842
13,COc1ccc(C(=O)Cc2ccccc2)cc1F,-0.233
14,CC(C)(C)c1ccc(OCC(=O)Nc2ccc3c4c(cccc24)C(=O)NC3=O)cc1,-3.37
15,O=C(Cn1ncc2c(=O)oc3ccccc3c21)NC1CCN(Cc2ccccc2)CC1,-4.69
16,Cc1ccc(Cn2nnc3c(=O)n(Cc4cccc(Cl)c4)cnc32)cc1,-0.431
17,Clc1ccc(-c2ncnn2-c2ccccc2Cl)cc1,-3.4
18,CC(C)(C)c1ccc(S(=O)(=O)NCc2ccc(C(=O)N3CCOCC3)cc2)cc1,0.161
19,COCCNC(=O)C1CCN(C(=O)c2cnn(-c3ccccc3)c2-n2cccc2)CC1,3.4
20,Cc1cccc(NC(=O)C(C)Oc2ccccc2)n1 (stereo not shown),4.11
21,COc1ccc(OCc2nc3c4c(C)c(C)oc4ncn3n2)cc1,-2.81
22,CC(CCc1ccccc1)NC(=O)Cn1ncc2ccsc2c1=O (stereo not shown),-4.92
23,CCc1ccc2oc(-c3ccc(N)cc3)nc2c1,4.61
24,Cc1cccc(-c2nnc(C3CCNCC3)o2)c1,9.95
25,Fc1ccc(OCCCN2CCCCC2)cc1,8.26

row,SMILES,% Inhibition @ 10 uM [%]
1,O=C1CC(N2CCCCCC2)C(=O)N1c1ccc(N2C(=O)CC(N3CCCCCC3)C2=O)cc1 (stereo not shown),1.72
2,CN(C)CCC(C)(O)Cc1ccccc1 (stereo not shown),-0.864
3,COc1ccc(-c2csc(N3N=C(c4ccc(F)cc4)CC3c3ccc(C(C)C)cc3)n2)cc1F (stereo not shown),-1.15
4,CCOc1ccc(C2C(C#N)=C(N)Oc3[nH]nc(C)c32)cc1OCC (stereo not shown),-4.33
5,CC12C=CC(C)(O1)C1C(=O)N(c3ccccc3C#N)C(=O)C12 (stereo not shown),0.983
6,CCOc1ccc2nc(N3CCC(C(=O)Nc4cc(-c5cccc(F)c5)[nH]n4)CC3)sc2c1,-3.35
7,COc1ccccc1CNC(=O)C1CCCN(S(C)(=O)=O)C1 (stereo not shown),-1.21
8,COc1ccccc1/N=C1\SC(CC(=O)Nc2ccc(C(C)C)cc2)C(=O)N1C (stereo not shown),16.3
9,Cc1ncsc1CCOC(=O)Nc1ccccc1F,5.4
10,O=C(NCC1CCCO1)c1ccc(Cn2c(SCc3ccc(F)cc3)nc3ccncc32)cc1 (stereo not shown),1.41
11,CCOc1ccc(C2C3=C(O)CC(C)(C)CC3=NC(C)=C2C(=O)Nc2cc(C)ccn2)cc1 (stereo not shown),-3.9
12,Brc1csc(CN2CCN(c3ccccc3)CC2)c1,4.73
13,CC(C)CC(NC(=O)c1ccc(N2CCN(C)CC2)cc1)C(=O)NCC#N (stereo not shown),-7.36
14,O=C(C1CCCN(S(=O)(=O)c2cccc3nsnc23)C1)N1CCN(c2ncccn2)CC1 (stereo not shown),-2.52
15,CCNS(=O)(=O)c1ccc(OC)c(C(=O)NC2CCCCC2)c1,-9.07
16,C=CCN1C(=O)/C(=C\c2ccccc2C(=O)O)SC1=S,1.27
17,O=C(NCc1ccc(F)cc1)C1CC(=O)N(C2CCCCCC2)C1 (stereo not shown),-2.99
18,O=C(Cn1ccc2ccccc2c1=O)NCC(=O)NC1CCCCCC1,-0.972
19,O=C1NC(=O)/C(=C/c2ccc(-c3ccc(O)c(C(=O)O)c3)o2)S1,64.8
20,Cc1nc2ncnn2c(C)c1CCC(=O)N1CCN(c2ccccn2)CC1,1.26
21,COc1ccc(CCNC(=O)CCCc2nnc3n(CC(C)C)c(=O)c4sccc4n23)cc1OC,-1.31
22,O=C1CC(c2ccsc2)c2c(-c3ccccc3)n[nH]c2N1 (stereo not shown),-5.36
23,O=C(Cn1ncc2c(=O)oc3ccccc3c21)N1CCN(C(=O)c2ccco2)CC1,-4.69
24,COc1cccc(NC(=O)CCCC(=O)Nc2cccc(OC)c2)c1,-4.43
25,CCOc1ccc(C(=O)NCCc2ccc(S(N)(=O)=O)cc2)cc1OCC,3.27

row,SMILES,% Inhibition @ 10 uM [%]
1,CCN(CC)C(=O)CSc1nc(-c2cccc(C)c2)nc2c1Cc1c(CO)cnc(C)c1O2,2.49
2,O=C(NC1CCN(Cc2ccccc2)CC1)c1ccccc1,5.06
3,Cc1nn(-c2cccc(Cl)c2)c(O)c1/C=N/c1ccc(C(=O)O)c(O)c1,-4.76
4,O=C(NC1(C(F)(F)F)NC(=O)N(CCc2ccccc2)C1=O)c1ccco1 (stereo not shown),-0.891
5,CC1CN(Cc2nc3c(c(=O)n(C)c(=O)n3C)n2Cc2cccc(Cl)c2)CC(C)O1 (stereo not shown),-4.14
6,CCOC(=O)c1cnn2c(C)cc(C)nc12,0.427
7,CCC1=C(OC(=O)c2ccccc2)C(C)(C)C(c2ccccc2)OC1=O (stereo not shown),1.37
8,Cc1ccc(C(=O)Nc2scc(-c3ccccc3)c2C(=O)O)cc1,5.65
9,COc1cc(CN2CCN(Cc3cccc(C)c3)CC2)cc(OC)c1OC,-1.88
10,COc1ccc(C2NC(=O)NC(C)=C2C(=O)Nc2cccc(Cl)c2)cc1 (stereo not shown),-5.23
11,CCOC(=O)c1sc(NC(=O)CN2CCN(C)CC2)c(C(=O)OCC)c1C,-5.28
12,Cc1nc2ccccc2c2c1C(=O)N(Cc1cccnc1)C2=O,6.01
13,CCc1nn(C(C)C(=O)NCc2ccc(C)cc2)c(=O)c2cc3occc3n12 (stereo not shown),1.38
14,Clc1ccc(N2CCN(Cc3cccnc3)CC2)cc1,1.55
15,O=C(Nc1ccc(Cl)cc1)N1CCN(c2ccccn2)CC1,0.528
16,CCC(=O)NCc1nc2ccccc2n1Cc1ccc(C)cc1,-0.551
17,CCOC(=O)C1=C(CN2CC(C)CC(C)C2)NC(=O)NC1c1ccc(OC)cc1 (stereo not shown),-1.59
18,CC1CCN(c2c(NCC3CCC(C(=O)N4CCc5ccccc5C4)CC3)c(=O)c2=O)CC1 (stereo not shown),1.22
19,CCC(=O)c1c(C)nc2n(Cc3ccccc3)c3ccccc3n12,-1.22
20,CSCCC(C(=O)Nc1ccc(C)cc1)N1C(=O)c2ccccc2C1=O (stereo not shown),7.31
21,Cc1cccc(OCCCCN2CCCC2)c1,2.4
22,N#CCCN1CCN(C2=NC(=O)/C(=C/c3ccccc3Cl)S2)CC1,2.44
